This is an account of results in the supplement of paper PMC12217912.

To fix the notation:
B1: TEV protease; numbered along this chain (parent)
chain: MGESLFKGPRDYNPISSSICHLTNESDGHTTSLYGIGFGPFIITNKHLFRRNNGTLVVQSLHGVFKVKDTTTLQQHLVDGRDMIIIRMPKDFPPFPQKLKFREPQREERICLVTTNFQTKSMSSMVSDTSCTFPSGDGIFWKHWIQTKDGQCGSPLVSTRDGFIVGIHSASNFTNTNNYFTSVPKNFMELLTNQEAQQWVSGWRLNADSVLWGGHKVFMVKPEEPFQPVKEATQL

Some of the results follow. The full chains were built here from the parent and the listed change. Values near 0.05 are background.

Variants of B1 are the subject of the test. Kind of test: raw area under fraction-flipped curve 0-4 h after induction (AUC4h, not background-subtracted), DNA-recorder readout of cleavage of the substrate (dimensionless); higher = more cleavage of the substrate by the protease variant. The note with it: temperature: 34 °C; time window: 0-4 h after rhamnose induction. The protocol: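 In vivo DNA recorder in E. coli TOP10(DE3) ΔrhaA at 34 °C. Each TEVp single-site mutant (parent TEVp 0) is paired with a single-site variant of the 7-mer TEVs (canonical ENLYFQ|S). The substrate sits between flexible linkers in a Bxb1-sfGFP-TEVs-SsrA fusion, so cleavage stabilises Bxb1 and speeds flipping of a recombination array, read by NGS. The value is the raw area under the fraction-flipped curve over 0-4 h after rhamnose induction (AUC4h), with ≥20 reads per time point. It is not background-subtracted; inactive controls average about 0.047.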
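Note: Bxb1 expression induced with 0.2% (w/v) L-rhamnose at OD600 near 0.5, cultures sampled hourly, flipped fraction per protease–substrate barcode pair counted by paired-end Illumina sequencing.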

On to MGESLFKGPRDYNPISSSICHLTNEKDGHTTSLYGIGFGPFIITNKHLFRRNNGTLVVQSLHGVFKVKDTTTLQQHLVDGRDMIIIRMPKDFPPFPQKLKFREPQREERICLVTTNFQTKSMSSMVSDTSCTFPSGDGIFWKHWIQTKDGQCGSPLVSTRDGFIVGIHSASNFTNTNNYFTSVPKNFMELLTNQEAQQWVSGWRLNADSVLWGGHKVFMVKPEEPFQPVKEATQL [S26K], for which the “area with substrate ENLYFCS” value stood at 0.0599, the “area with substrate ENLYFDS” value was 0.0613, the “area with substrate ENLYFES” value came to 0.0607 and the “area with substrate ENLYFFS” value was 0.0578. In addition, the “area with substrate ENLYFGS” value is 0.0706, the “area with substrate ENLYFHS” value was 0.063, the “area with substrate ENLYFIS” value stood at 0.0532 and the “area with substrate ENLYFKS” value came out at 0.0674. The “area with substrate ENLYFLS” value is 0.0584, the “area with substrate ENLYFMS” value came out at 0.0701, the “area with substrate ENLYFNS” value is 0.0592 and the “area with substrate ENLYFPS” value is 0.0559. Further, the “area with substrate ENLYFRS” value turned out to be 0.0679, the “area with substrate ENLYFTS” value was 0.0762, the “area with substrate ENLYFVS” value came out at 0.0717 and the “area with substrate ENLYFWS” value was found to be 0.0583. In addition, the “area with substrate ENLYFYS” value is 0.061.

In the case of MGESLFKGPRDYNPISSSICWLTNESDGHTTSLYGIGFGPFIITNKHLFRRNNGTLVVQSLHGVFKVKDTTTLQQHLVDGRDMIIIRMPKDFPPFPQKLKFREPQREERICLVTTNFQTKSMSSMVSDTSCTFPSGDGIFWKHWIQTKDGQCGSPLVSTRDGFIVGIHSASNFTNTNNYFTSVPKNFMELLTNQEAQQWVSGWRLNADSVLWGGHKVFMVKPEEPFQPVKEATQL [H21W], the “area with substrate ENLYFCS” value was 0.0545, the “area with substrate ENLYFDS” value was found to be 0.0679, the “area with substrate ENLYFES” value amounted to 0.0611 and the “area with substrate ENLYFHS” value came to 0.0342. Besides, the “area with substrate ENLYFLS” value was 0.0307, the “area with substrate ENLYFMS” value was 0.0648, the “area with substrate ENLYFNS” value worked out at 0.06 and the “area with substrate ENLYFPS” value amounted to 0.0538. For the same variant, the “area with substrate ENLYFRS” value was found to be 0.0549, the “area with substrate ENLYFSS” value is 0.0645, the “area with substrate ENLYFTS” value was 0.0632 and the “area with substrate ENLYFVS” value was 0.0467. The “area with substrate ENLYFWS” value worked out at 0.0557 and the “area with substrate ENLYFYS” value is 0.0532.

With MGESLFKGPRDYNPISSSICHLTNESDGHTTSLYGIGFGPFIITNKHLFRRNNGTLVVQSLHGVFKVKDTTTLVQHLVDGRDMIIIRMPKDFPPFPQKLKFREPQREERICLVTTNFQTKSMSSMVSDTSCTFPSGDGIFWKHWIQTKDGQCGSPLVSTRDGFIVGIHSASNFTNTNNYFTSVPKNFMELLTNQEAQQWVSGWRLNADSVLWGGHKVFMVKPEEPFQPVKEATQL [Q74V], the “area with substrate ENLYFCS” value was determined as 0.0614, the “area with substrate ENLYFDS” value was found to be 0.0552, the “area with substrate ENLYFES” value amounted to 0.0579 and the “area with substrate ENLYFFS” value was 0.0705. In addition, the “area with substrate ENLYFHS” value came to 0.0602, the “area with substrate ENLYFIS” value is 0.0555, the “area with substrate ENLYFLS” value came to 0.0785 and the “area with substrate ENLYFMS” value worked out at 0.064. In addition, the “area with substrate ENLYFNS” value was 0.0477, the “area with substrate ENLYFPS” value was found to be 0.0545, the “area with substrate ENLYFSS” value stood at 0.0631 and the “area with substrate ENLYFTS” value is 0.0316. In addition, the “area with substrate ENLYFVS” value amounted to 0.0534, the “area with substrate ENLYFWS” value is 0.0468 and the “area with substrate ENLYFYS” value was 0.0404.

As to MGESLFKGPRDYNPISSSICHLINESDGHTTSLYGIGFGPFIITNKHLFRRNNGTLVVQSLHGVFKVKDTTTLQQHLVDGRDMIIIRMPKDFPPFPQKLKFREPQREERICLVTTNFQTKSMSSMVSDTSCTFPSGDGIFWKHWIQTKDGQCGSPLVSTRDGFIVGIHSASNFTNTNNYFTSVPKNFMELLTNQEAQQWVSGWRLNADSVLWGGHKVFMVKPEEPFQPVKEATQL [T23I], the “area with substrate ENLYFCS” value stood at 0.0674, the “area with substrate ENLYFDS” value stood at 0.0651, the “area with substrate ENLYFFS” value is 0.0756 and the “area with substrate ENLYFIS” value was found to be 0.0535. Further, the “area with substrate ENLYFKS” value is 0.0681, the “area with substrate ENLYFLS” value amounted to 0.0506, the “area with substrate ENLYFMS” value is 0.0738 and the “area with substrate ENLYFNS” value is 0.0682. Besides, the “area with substrate ENLYFPS” value came out at 0.0547, the “area with substrate ENLYFRS” value was found to be 0.0672, the “area with substrate ENLYFSS” value came out at 0.0557 and the “area with substrate ENLYFTS” value came to 0.0961. Besides, the “area with substrate ENLYFWS” value was 0.0705 and the “area with substrate ENLYFYS” value amounted to 0.0507.

With MGESLFKGPRDYNPISSSICHLTNESDGHTTSLYGIGFGPFIITNKHLFRRNNGTLVVQSLHGVFKVKDTTTPQQHLVDGRDMIIIRMPKDFPPFPQKLKFREPQREERICLVTTNFQTKSMSSMVSDTSCTFPSGDGIFWKHWIQTKDGQCGSPLVSTRDGFIVGIHSASNFTNTNNYFTSVPKNFMELLTNQEAQQWVSGWRLNADSVLWGGHKVFMVKPEEPFQPVKEATQL [L73P], the “area with substrate ENLYFCS” value was 0.0449, the “area with substrate ENLYFES” value was determined as 0.0368, the “area with substrate ENLYFFS” value came out at 0.0598 and the “area with substrate ENLYFGS” value was found to be 0.0609. Besides, the “area with substrate ENLYFHS” value is 0.0971, the “area with substrate ENLYFIS” value turned out to be 0.0493, the “area with substrate ENLYFKS” value is 0.0558 and the “area with substrate ENLYFMS” value was 0.0621. The “area with substrate ENLYFNS” value came to 0.0525, the “area with substrate ENLYFPS” value was determined as 0.0524, the “area with substrate ENLYFRS” value came to 0.0603 and the “area with substrate ENLYFSS” value stood at 0.0605. For the same variant, the “area with substrate ENLYFTS” value is 0.0562, the “area with substrate ENLYFVS” value came to 0.0439 and the “area with substrate ENLYFYS” value was found to be 0.0514.

As to MGESLFKGPRDYNPISSSICHLTNESDGHTTSLYGIGFGPFIITNKHLFRRNNGTLLVQSLHGVFKVKDTTTLQQHLVDGRDMIIIRMPKDFPPFPQKLKFREPQREERICLVTTNFQTKSMSSMVSDTSCTFPSGDGIFWKHWIQTKDGQCGSPLVSTRDGFIVGIHSASNFTNTNNYFTSVPKNFMELLTNQEAQQWVSGWRLNADSVLWGGHKVFMVKPEEPFQPVKEATQL [V57L], the “area with substrate ENLYFCS” value was 0.0623, the “area with substrate ENLYFDS” value stood at 0.0455, the “area with substrate ENLYFES” value amounted to 0.045 and the “area with substrate ENLYFFS” value worked out at 0.0737. Moreover, the “area with substrate ENLYFHS” value is 0.0547, the “area with substrate ENLYFIS” value was found to be 0.0539, the “area with substrate ENLYFKS” value came to 0.06 and the “area with substrate ENLYFMS” value stood at 0.0663. In addition, the “area with substrate ENLYFNS” value was 0.0066, the “area with substrate ENLYFPS” value stood at 0.0422, the “area with substrate ENLYFRS” value amounted to 0.0665 and the “area with substrate ENLYFWS” value was found to be 0.0598. For the same variant, the “area with substrate ENLYFYS” value came to 0.0581.

As for MGESLFKGPRDYNPISSSICHLTNESDGHTTSLYGDGFGPFIITNKHLFRRNNGTLVVQSLHGVFKVKDTTTLQQHLVDGRDMIIIRMPKDFPPFPQKLKFREPQREERICLVTTNFQTKSMSSMVSDTSCTFPSGDGIFWKHWIQTKDGQCGSPLVSTRDGFIVGIHSASNFTNTNNYFTSVPKNFMELLTNQEAQQWVSGWRLNADSVLWGGHKVFMVKPEEPFQPVKEATQL [I36D], the “area with substrate ENLYFCS” value turned out to be 0.0421, the “area with substrate ENLYFDS” value was found to be 0.0499, the “area with substrate ENLYFES” value worked out at 0.0338 and the “area with substrate ENLYFFS” value is 0.0535. For the same variant, the “area with substrate ENLYFGS” value came to 0.0297, the “area with substrate ENLYFIS” value came to 0.0398, the “area with substrate ENLYFKS” value amounted to 0.0478 and the “area with substrate ENLYFMS” value worked out at 0.0425. Moreover, the “area with substrate ENLYFNS” value is 0.0464, the “area with substrate ENLYFPS” value was found to be 0.0365, the “area with substrate ENLYFRS” value worked out at 0.0501 and the “area with substrate ENLYFSS” value worked out at 0.0464. For the same variant, the “area with substrate ENLYFTS” value was determined as 0.0501, the “area with substrate ENLYFVS” value amounted to 0.0452, the “area with substrate ENLYFWS” value was 0.0212 and the “area with substrate ENLYFYS” value is 0.0328.

Turning to MGESLFKGPRDYNPISSSICHLTNESDGHTTSLYGIGFGPFIITNKHLFRANNGTLVVQSLHGVFKVKDTTTLQQHLVDGRDMIIIRMPKDFPPFPQKLKFREPQREERICLVTTNFQTKSMSSMVSDTSCTFPSGDGIFWKHWIQTKDGQCGSPLVSTRDGFIVGIHSASNFTNTNNYFTSVPKNFMELLTNQEAQQWVSGWRLNADSVLWGGHKVFMVKPEEPFQPVKEATQL [R51A], the “area with substrate ENLYFCS” value was 0.0524, the “area with substrate ENLYFDS” value was 0.0545, the “area with substrate ENLYFES” value worked out at 0.0682 and the “area with substrate ENLYFFS” value was 0.064. Also, the “area with substrate ENLYFGS” value amounted to 0.063, the “area with substrate ENLYFHS” value was determined as 0.0654, the “area with substrate ENLYFIS” value is 0.0553 and the “area with substrate ENLYFKS” value turned out to be 0.0493. In addition, the “area with substrate ENLYFMS” value stood at 0.0659, the “area with substrate ENLYFNS” value is 0.072, the “area with substrate ENLYFPS” value is 0.0593 and the “area with substrate ENLYFWS” value turned out to be 0.0505.

Regarding MGESLFKGPRDYNPISSSICHLTNESDGHFTSLYGIGFGPFIITNKHLFRRNNGTLVVQSLHGVFKVKDTTTLQQHLVDGRDMIIIRMPKDFPPFPQKLKFREPQREERICLVTTNFQTKSMSSMVSDTSCTFPSGDGIFWKHWIQTKDGQCGSPLVSTRDGFIVGIHSASNFTNTNNYFTSVPKNFMELLTNQEAQQWVSGWRLNADSVLWGGHKVFMVKPEEPFQPVKEATQL [T30F], the “area with substrate ENLYFCS” value came to 0.0585, the “area with substrate ENLYFES” value turned out to be 0.0836, the “area with substrate ENLYFFS” value worked out at 0.0712 and the “area with substrate ENLYFGS” value was determined as 0.0543. The “area with substrate ENLYFHS” value worked out at 0.055, the “area with substrate ENLYFIS” value came to 0.0559, the “area with substrate ENLYFKS” value turned out to be 0.0638 and the “area with substrate ENLYFMS” value is 0.0598. For the same variant, the “area with substrate ENLYFNS” value amounted to 0.0651, the “area with substrate ENLYFPS” value worked out at 0.0608, the “area with substrate ENLYFRS” value came out at 0.0673 and the “area with substrate ENLYFSS” value amounted to 0.0509. Also, the “area with substrate ENLYFTS” value was determined as 0.0583, the “area with substrate ENLYFWS” value worked out at 0.0543 and the “area with substrate ENLYFYS” value turned out to be 0.0576.
